Variants at the floor of the assay are shown more often than the library holds them.
B1: TPR 5TU (parent)
chain: GGAUCUUCUCGAUCUAACAAAAAAGACAAAUCUGCCACAAAGCUUGAGAGCAUCUUCGGAUGCAGAGGCGGCAGCCUUCGGUGGCGCGAUAGCGCCAACGUUCUCAACUAUGACACGCAAAACGCGUGCUCCGUUGAAUGGAGUUUAUCAUG

Variants of: B1
Assay: polymerase ribozyme fitness, log enrichment relative to wild type (log ratio); higher = more active; in vitro selection for triplet polymerase activity
Summary of the method: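 Mutant libraries for each subunit of a heterodimeric triplet polymerase ribozyme were made by PCR and then transcribed. Each library underwent one round of in vitro selection in triplicate: annealing with a biotinylated primer, the partner subunit and triplets, frozen incubation at −7 °C, gel excision of extended constructs, streptavidin-bead capture and RT-PCR. Input and output libraries were Illumina-sequenced, and only genotypes with ≥10 input reads and ≥1 read per output were kept. Fitness is the logarithm, base 2, of genotype enrichment over wild-type enrichment, computed from inverse-variance-weighted replicate averages.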

Point of comparison: GGAUCUUCUGGAUCUAAGAAAAAAGACAAAUCUGCCACAAAGCUUGAGAGCAUCCUUGGAAGCAGAGGCGGCAGCCUUCGGUGGCGCGAUAGCGCCAACGUUCUCAACUAUGACACGCAAAACGCGUGCUCCGUUGAAUGGAGUUUAUCAUG [C10G C18G U55C C57U U61A], “polymerase ribozyme fitness (log ratio)” value -4.15. Against it:
- GGAUCUUCUGGAUCUAACAAAAAAGACAAAUCUGCCACAAAGUUUGAGAGCAUCUUCGGAUGCAGAGGCGGCAGCCUUCGGUGGCGCGAUUGCGCCAACGUUCUCAACUAUGACACGCAAAACGCGUGCUCCGUUGAAUGGAGCUAAUCAUG [C10G C43U A91U U144C U146A] — lower, ≤ -4.2
- GGAUCUUCUGGAUCUAACAAAAAAGACAAAUCUGUCACAAAGCUUGAGAGCAUCUUCGGAUCGAUAGGCGGCAGCCUUCGGUGUCGCGAUAGCGCCAACGGUCUCACCUAUGACACUCAAAACGCGUGCUCCGUUGAAUGGAGUUUAUCAUG [C10G C35U G62C C63G G65U G84U U101G A107C G117U] — lower, ≤ -4.2
- GGAUCUUCUGGAUCUAACAAAAAAGAAAAAUCUGCCACAAAGCUUGAGAGCAUCUUCGGAUGCAGAGGCGGCAGCCUUCGGCAGCGCGAUUGCGCCAACGUUCUCAACUAUGACACGCAAAACGCGUGCUCCGUUGAAUGGAGUUUAUCAUG [C10G C27A U82C G83A A91U] — lower, ≤ -4.2
- GGAUCUUCUGGAUCUAACAAAAAAGACAAAUCUGCCACAAAGCUUGAGAGCAUCUUCGGAUGCAGAGGCGGCGGCCUUCGGUGGCGCGUUAGCGCCAACGUGCUCAACUAUGACACGCAAAACGCGUGCUCCGUUGAAUGGCGUUUAUCAUU [C10G A73G A89U U102G A142C G152U] — lower, ≤ -4.2
- GGAUCUUCUGGAUGUAGCAAAAAUGACAAAUCUGCCACAAAGCUUGAGAGCAUCUUCGGAUGCAGAGGCGGCAGCCUUCGGGGGCGCGAUAGGGCCAACGUUCUCAACUAUGACACGCAAAACGCGUGCUCCGUUGAAUGGAGUUUAUCAUG [C10G C14G A17G A24U U82G C93G] — lower, ≤ -4.2
- GGAUCUUCUGGAUCUAACAAAAAAGACAAAUCUGCCACAAAGCUUGAGAGCAUCUUCGGAUGCAGAGGCGGCAGCCUUCGGUGGCGCGAUAGCGCCAACGUUCUCCACUAUGACACGCAAAACGCGUGCUCCGUUGAAUGGACUUUAUCAUG [C10G A106C G143C] — lower, ≤ -4.2
- GGAUCUUCUGGAUCUAACAAAAAAGACAAAUCUGCCACAAAGCUUGAGCGCAUCUUCGCAUGCAGAGGCGGCAGCCUUCGGUGGCGCGAUAGCGCCUACGUUCUCAACUAUGACACGCAAAACGCGUGCUCCGUUGAAUGGAGUUUAUCAUG [C10G A49C G59C A97U] — lower, ≤ -4.2
- GGAUCUUCUGGAUCUAACAAAAAAGACAAAUCUGCCAUAAAGCUUGAGAGCAUCUGCGGAUGCAGAGGCGGCAGCCUUCGGUGGCGCGAUGGCGCCAACGUUCUCAACUAUGACACGCAAAACGCGUGCUCCGUUGAAUGUAGUUUAUAAUG [C10G C38U U56G A91G G141U C149A] — lower, ≤ -4.2
- GGAUCUUCUGGAUUUAACAAAAAAGACAAAUCUGCCACAAAGCUUGAGAACAACUUCGGAUGCAGAGGCGGCAGCCUUCGGUGGCGCGAUAGCGGCGACGUUCUCAACUAUGACACGCAAAACGCGUGCUCCGUUGAAUGGAGUUUAUCAUG [C10G C14U G50A U53A C95G A97G] — lower, ≤ -4.2
- GGAUCUUCUGGAUCUAACAAAAAAGACAAAUCUGCCACAAAGCUUGAGAGCAUCUUCGGAUGCAGAGGCGGCAGCCUUCGGUGGCGCGGUAGCGCCAACGUUCUCAACUAUGACACGCAAAACGCGUGCUCCGUUGAAUGGAGUUUAUCAUG [C10G A89G] — lower, ≤ -4.2
- GGAUCUUCUGGAUCUAACAAAAAAGACAAAUCUGCCAUAAAGCUUGAGAACAUCUUCGGAUGCAGAGGCGGCAGCCUUCGGUGGCGCGAAAGCGCCAACGUUCUCAACUAUGACACGCAAAACGCGCUCUCCGUUGAAUGGAGUAUAUCAUG [C10G C38U G50A U90A U127C G128U U145A] — lower, ≤ -4.2
- GGAUCUUCUGGAUGUAACAAAAAAGACAAAUCUGCCACAAAGCUUGAGAGCGACUACGCAUGCAGAGGCGGCAGCCGUCGGUGGCGCGAUACCGCCAACGUUCUCAACUAUGACACGCAAAACGCGUGCUCCGUUGAAUGGAGUUUAUCAUG [C10G C14G A52G U53A U56A G59C U77G G92C] — lower, ≤ -4.2
- GGAUCUUCUGGAUCUAACAAAAAAGACAAAUCUGCCACAUAGCUUGAGAGCAUCUUCCGAUGCAGAGGCGGCAGCCUUCGGUGGCACGAUAGCGCCAACGUUCUCAACUAUGAUACGCAAAACGCGUGCUCCGGUGAAUGGACUUUAUCAUG [C10G A40U G58C G86A C114U U134G G143C] — lower, ≤ -4.2
- GGAUCUUCUGGAUCUAACAAAAAAGAAAAAUCUGCCACAAAGCUUGAGAGCAGCUUCGGAUGCAGAGGGGGCAGCCUUCGGUGGCGCGAUAGCACCAAUGGUCUCAACUAUGACACGCAAAACGCGCGCUCCGUUGAAUCGAGUUUAUGAUG [C10G C27A U53G C69G G94A C99U U101G U127C G140C C149G] — lower, ≤ -4.2
- GGAUCUUCUGGAUCUAACAAAAAAGACAAAUCUGCCACAAAGCUUGAGAGCAUUUUCGGAUGCAGAGGCGGCAGCGUUCGGUGGCGCGAUAGCGUCAACGCUCUCAACUAUGACACGCAAAACGCGUGCUCCGUUGAAUGGAGUUUAUCAUG [C10G C54U C76G C95U U101C] — lower, ≤ -4.2
- GGAUCUUCUGGAUCUAACAAAAAAGACAAAUCUGCCACAACGCUUGAGAGCAUCUUCGGAUGCAGAGGCGACAGCCUUCGGUGGCACGAUAGCGCCAACGUUCUCAACUAUGACACGCAAAACGGGUGCUCCGUUGAAUGGUGUUUAUCAUG [C10G A41C G71A G86A C125G A142U] — lower, ≤ -4.2
- GGAUCUUCUGGAUUUAACAAAAAAGACAAAUCUGCAACAAAGCUUGAGAGCAUCUUCGGAUGCAGAGGCGGCAGCCUUUGGUGGCGCGAUAUCGCCAACGUUCUCAACUAUGACACGCAAAACGCGUGCUCCGUUGAAUGGAGUUUAUCAUG [C10G C14U C36A C79U G92U] — lower, ≤ -4.2
- GGAUCUUCUGGAUCUAACAAAAAAGACAAAUCUGCCACAAAGCUUGAGAGCUUCUUCGGAUGCAGAGGCGGUAGCCUUCGGUGGCUCGAUAGUGCCAACGUUCUCAACUAUGACAGGCAAAACACGUGCUCCGUUGAAUGGAGCUUAUCAUG [C10G A52U C72U G86U C93U C116G G124A U144C] — lower, ≤ -4.2

Source: the RNAGym collection of RNA variant scans (doi:10.1073/pnas.2313332121)
